Some of the results follow.
Key:
Assay in all cases: glycan array binding signal (z-score within array); higher = stronger binding
Conditions in all cases: glycan notation: IUPAC condensed, linker removed
Gal(a1-3)Gal(b1-3)GlcNAc = target: Gal(a1-3)Gal(b1-3)GlcNAc
Summary of the method: (§1)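 Arrays were curated from the Consortium for Functional Glycomics database, 3228 in total, and kept only where the protein sequence was available. Binding is expressed as a within-array Z-score. This score was averaged across arrays of the same protein sequence at different concentrations or buffers and across linkers, and negative values can be read as non-binding.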

[1] = target: Gal(a1-3)Gal(b1-3)GlcNAc(b1-2)Man
Summary of the method: as §1

[2] = target: Gal(a1-3)Gal(b1-3)GlcNAc(b1-2)Man(a1-3)[Gal(a1-3)Gal(b1-3)GlcNAc(b1-2)Man(a1-6)]Man(b1-4)GlcNAc(b1-4)GlcNAc
Summary of the method: as §1

[3] = target: Gal(a1-3)Gal(b1-3)GlcNAc(b1-3)GalNAc
Summary of the method: as §1

[4] = target: Gal(a1-3)Gal(b1-3)GlcNAc(b1-6)GalNAc
Summary of the method: as §1

[5] = target: Gal(a1-3)Gal(b1-3)[Fuc(a1-4)]GlcNAc(b1-2)Man(a1-3)[Gal(a1-3)Gal(b1-3)[Fuc(a1-4)]GlcNAc(b1-2)Man(a1-6)]Man(b1-4)GlcNAc(b1-4)GlcNAc
Summary of the method: as §1

Gal(a1-3)Gal(b1-4)Glc = target: Gal(a1-3)Gal(b1-4)Glc
Summary of the method: as §1

Gal(a1-3)Gal(b1-4)GlcNAc = target: Gal(a1-3)Gal(b1-4)GlcNAc
Summary of the method: as §1

[6] = target: Gal(a1-3)Gal(b1-4)GlcNAc(b1-2)Man
Summary of the method: as §1

[7] = target: Gal(a1-3)Gal(b1-4)GlcNAc(b1-2)Man(a1-3)[Gal(a1-3)Gal(b1-4)GlcNAc(b1-2)Man(a1-6)]Man(b1-4)GlcNAc(b1-4)GlcNAc
Summary of the method: as §1

[8] = target: Gal(a1-3)Gal(b1-4)GlcNAc(b1-3)GalNAc
Summary of the method: as §1

[9] = target: Gal(a1-3)Gal(b1-4)GlcNAc(b1-6)GalNAc
Summary of the method: as §1

[10] = target: Gal(a1-3)Gal(b1-4)[Fuc(a1-3)]GlcNAc
Summary of the method: as §1

[11] = target: Gal(a1-3)Gal(b1-4)[Fuc(a1-3)]GlcNAc(b1-2)Man(a1-3)[Gal(a1-3)Gal(b1-4)[Fuc(a1-3)]GlcNAc(b1-2)Man(a1-6)]Man(b1-4)GlcNAc(b1-4)GlcNAc
Summary of the method: as §1

Gal(a1-3)GalNAc = target: Gal(a1-3)GalNAc
Summary of the method: as §1

[12] = target: Gal(a1-3)[Gal(a1-4)]Gal(b1-4)GlcNAc
Summary of the method: as §1

[13] = target: Gal(a1-4)Gal(b1-3)GlcNAc(b1-2)Man(a1-3)[Gal(a1-4)Gal(b1-3)GlcNAc(b1-2)Man(a1-6)]Man(b1-4)GlcNAc(b1-4)GlcNAc
Summary of the method: as §1

Gal(a1-4)Gal(b1-4)Glc = target: Gal(a1-4)Gal(b1-4)Glc
Summary of the method: as §1

Gal(a1-4)Gal(b1-4)GlcNAc = target: Gal(a1-4)Gal(b1-4)GlcNAc
Summary of the method: as §1

[14] = target: Gal(a1-4)Gal(b1-4)GlcNAc(b1-2)Man(a1-3)[Gal(a1-4)Gal(b1-4)GlcNAc(b1-2)Man(a1-6)]Man(b1-4)GlcNAc(b1-4)GlcNAc
Summary of the method: as §1

[15] = target: Gal(a1-4)Gal(b1-4)GlcNAc(b1-3)Gal(b1-4)Glc
Summary of the method: as §1

Gal(a1-4)GlcNAc = target: Gal(a1-4)GlcNAc
Summary of the method: as §1

Gal(a1-6)Glc = target: Gal(a1-6)Glc
Summary of the method: as §1

Gal(b1-2)Gal = target: Gal(b1-2)Gal
Summary of the method: as §1

Gal(b1-3)Gal = target: Gal(b1-3)Gal
Summary of the method: as §1

Gal(b1-3)Gal(b1-4)GlcNAc = target: Gal(b1-3)Gal(b1-4)GlcNAc
Summary of the method: as §1

Gal(b1-3)GalNAc = target: Gal(b1-3)GalNAc
Summary of the method: as §1

[16] = target: Gal(b1-3)GalNAc(a1-3)[Fuc(a1-2)]Gal(b1-4)Glc
Summary of the method: as §1

[17] = target: Gal(b1-3)GalNAc(a1-3)[Fuc(a1-2)]Gal(b1-4)GlcNAc
Summary of the method: as §1

Gal(b1-3)GalNAc(b1-3)Gal = target: Gal(b1-3)GalNAc(b1-3)Gal
Summary of the method: as §1

[18] = target: Gal(b1-3)GalNAc(b1-3)Gal(a1-4)Gal(b1-4)Glc
Summary of the method: as §1

[19] = target: Gal(b1-3)GalNAc(b1-4)Gal(b1-4)Glc
Summary of the method: as §1

[20] = target: Gal(b1-3)GalNAc(b1-4)[Neu5Ac(a2-3)]Gal(b1-4)Glc
Summary of the method: as §1

Gal(b1-3)GlcNAc = target: Gal(b1-3)GlcNAc
Summary of the method: as §1

[21] = target: Gal(b1-3)GlcNAc(a1-3)Gal(b1-4)GlcNAc
Summary of the method: as §1

[22] = target: Gal(b1-3)GlcNAc(a1-6)Gal(b1-4)GlcNAc
Summary of the method: as §1

Gal(b1-3)GlcNAc(b1-2)Man = target: Gal(b1-3)GlcNAc(b1-2)Man
Summary of the method: as §1

[23] = target: Gal(b1-3)GlcNAc(b1-2)Man(a1-3)[Gal(b1-3)GlcNAc(b1-2)Man(a1-6)]Man(b1-4)GlcNAc(b1-4)GlcNAc
Summary of the method: as §1

B1: Mg3lysM (Mycosphaerella graminicola) (protein)
chain: APQNPPTSCSAAPQPTGTGSPGTVCGSTTFTNYTVKAGDTLGAIAKQYNSGVCDIAKVNGIDNPDYIKPDQVLSIPANCVTPDNTSCVKPVPVITNTCVLGVGSTYTVKSGDSFSAIATSFNITLASLEARNPQIPNYDLIFPGQVINTPLCPNSVCDSIGTYVIESGDIFYNLAQSNNVTVGQLESLNVNVNVTDIHPGDIIILPHNCHNITASA
glycan array binding signal (z-score) (Gal(a1-3)Gal(b1-3)GlcNAc): -0.117 | glycan array binding signal (z-score) [1]: 0.01 | glycan array binding signal (z-score) [2]: -0.098 | glycan array binding signal (z-score) [3]: -0.004 | glycan array binding signal (z-score) [4]: -0.03 | glycan array binding signal (z-score) [5]: -0.042 | glycan array binding signal (z-score) (Gal(a1-3)Gal(b1-4)Glc): 0.027 | glycan array binding signal (z-score) (Gal(a1-3)Gal(b1-4)GlcNAc): -0.077 | glycan array binding signal (z-score) [6]: -0.16 | glycan array binding signal (z-score) [7]: -0.058 | glycan array binding signal (z-score) [8]: -0.048 | glycan array binding signal (z-score) [9]: -0.112 | glycan array binding signal (z-score) [10]: -0.151 | glycan array binding signal (z-score) [11]: -0.015 | glycan array binding signal (z-score) (Gal(a1-3)GalNAc): -0.094 | glycan array binding signal (z-score) [12]: -0.101 | glycan array binding signal (z-score) [13]: -0.065 | glycan array binding signal (z-score) (Gal(a1-4)Gal(b1-4)Glc): 0.062 | glycan array binding signal (z-score) (Gal(a1-4)Gal(b1-4)GlcNAc): -0.019 | glycan array binding signal (z-score) [14]: 0.012 | glycan array binding signal (z-score) [15]: -0.14 | glycan array binding signal (z-score) (Gal(a1-4)GlcNAc): -0.107 | glycan array binding signal (z-score) (Gal(a1-6)Glc): -0.133 | glycan array binding signal (z-score) (Gal(b1-2)Gal): -0.058 | glycan array binding signal (z-score) (Gal(b1-3)Gal): -0.076 | glycan array binding signal (z-score) (Gal(b1-3)Gal(b1-4)GlcNAc): -0.049 | glycan array binding signal (z-score) (Gal(b1-3)GalNAc): -0.058 | glycan array binding signal (z-score) [16]: -0.097 | glycan array binding signal (z-score) [17]: -0.046 | glycan array binding signal (z-score) (Gal(b1-3)GalNAc(b1-3)Gal): 0.131 | glycan array binding signal (z-score) [18]: -0.131 | glycan array binding signal (z-score) [19]: 0.049 | glycan array binding signal (z-score) [20]: -0.021 | glycan array binding signal (z-score) (Gal(b1-3)GlcNAc): -0.012 | glycan array binding signal (z-score) [21]: 0.006 | glycan array binding signal (z-score) [22]: -0.12 | glycan array binding signal (z-score) (Gal(b1-3)GlcNAc(b1-2)Man): -0.123 | glycan array binding signal (z-score) [23]: -0.045

Reference: the supplement of paper PMC8728848
